Assay results as given in PMC4336329 (PLoS ONE, 2015).
Screen size: about 310,000 compounds; about 14,000 (4.5%) showed an effect of 50% or more. Effects have a minus sign here. Some of the results follow.

target: human ether-à-go-go-related gene (hERG) potassium channel (human, UniProt Q12809); experiment: primary screen, population patch clamp on CHO cells stably expressing hERG
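Also: peak tail current of the secondary pulse compared with the same well before compound.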

Chain of human ether-à-go-go-related gene (hERG) potassium channel (Q12809 whole entry, looked up): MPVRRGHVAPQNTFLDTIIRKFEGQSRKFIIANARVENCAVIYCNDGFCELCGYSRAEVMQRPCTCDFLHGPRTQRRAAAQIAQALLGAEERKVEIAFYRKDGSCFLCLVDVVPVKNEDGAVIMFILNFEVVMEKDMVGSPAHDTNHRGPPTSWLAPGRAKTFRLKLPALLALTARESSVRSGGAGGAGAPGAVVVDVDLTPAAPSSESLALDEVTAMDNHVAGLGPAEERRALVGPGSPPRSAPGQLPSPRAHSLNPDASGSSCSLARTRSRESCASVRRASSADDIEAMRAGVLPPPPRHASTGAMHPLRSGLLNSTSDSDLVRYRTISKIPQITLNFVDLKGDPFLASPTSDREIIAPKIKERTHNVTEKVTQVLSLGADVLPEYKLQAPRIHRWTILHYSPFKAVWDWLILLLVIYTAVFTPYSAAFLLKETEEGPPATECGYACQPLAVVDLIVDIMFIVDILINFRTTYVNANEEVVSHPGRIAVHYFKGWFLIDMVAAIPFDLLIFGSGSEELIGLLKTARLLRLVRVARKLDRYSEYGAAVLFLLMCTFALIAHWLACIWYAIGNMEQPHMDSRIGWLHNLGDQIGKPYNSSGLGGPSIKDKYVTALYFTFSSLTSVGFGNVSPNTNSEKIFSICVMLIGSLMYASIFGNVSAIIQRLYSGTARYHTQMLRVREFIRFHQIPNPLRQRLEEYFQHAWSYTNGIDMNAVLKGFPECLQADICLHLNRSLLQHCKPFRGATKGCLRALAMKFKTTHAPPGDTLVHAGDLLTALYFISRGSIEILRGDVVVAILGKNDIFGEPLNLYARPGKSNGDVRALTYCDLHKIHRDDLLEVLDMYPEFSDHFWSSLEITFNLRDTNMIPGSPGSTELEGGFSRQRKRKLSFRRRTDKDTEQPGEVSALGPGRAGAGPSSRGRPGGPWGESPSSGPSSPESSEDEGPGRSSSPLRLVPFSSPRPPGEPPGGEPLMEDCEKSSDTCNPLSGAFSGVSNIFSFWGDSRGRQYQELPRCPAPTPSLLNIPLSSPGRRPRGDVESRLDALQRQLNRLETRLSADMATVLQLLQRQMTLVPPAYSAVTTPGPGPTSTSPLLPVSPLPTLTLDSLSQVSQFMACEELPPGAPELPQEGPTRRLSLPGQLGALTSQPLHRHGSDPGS

SMILES	hERG current change (%, negative = inhibition) at 10uM
COc1ccc(NC(=O)CNC(=O)Cc2ccccc2)cc1OC	13.7%
COC(=O)c1cc(OC)c(OC)cc1NC(=O)CSc1ccc(C)cc1	0.827%
C=C(C)CNC(=S)Nc1sc2c(c1C(=O)OCC)CC(C)(C)OC2	28.6%
CCCN(CC(=O)Nc1ccccc1C)C(=O)C1CC(=O)N(c2ccc(CC)cc2)C1 (stereo not shown)	-40.5%
S=c1nc(C2CCCCC2)n(-c2ccccc2)[nH]1	15.6%
COc1ccc(CN=C2NN=C(c3cccc(OC)c3)CS2)cc1	-38.7%
COc1ccc(CCn2c(-c3cccc([N+](=O)[O-])c3)nc3nc4ccccc4nc32)cc1OC	5.13%
Cc1cc(C)c2nc(N3CCC(C(=O)NCCCN4CCCC4=O)CC3)sc2c1	-25.5%
CCOC(=O)c1csc(-c2sccc2Br)n1	-9.67%
COc1ccc(OC)c2sc(Cl)nc12	-3.41%
Cc1ccccc1-n1nc2c(c1NC(=O)c1cccs1)CS(=O)(=O)C2	-5.08%
O=C1C(Cc2ccc(O)cc2)NC(=S)N1c1ccccc1 (stereo not shown)	-3.5%
O=S(=O)(NCc1csc(-c2cccnc2)n1)c1ccc(F)cc1	16.2%
Cc1ccc(NC(=O)c2ccc(OCc3c(C)noc3C)cc2)nc1	-8.97%
CC(C)NC(=O)C12CC3CC(C1)CC(C(=O)NC(C)C)(C3)C2	-16.8%
CC(C)Cn1c(C(C)C)nc([N+](=O)[O-])c1S(=O)(=O)c1ccc(F)cc1	-15.4%
Nn1c(Cc2ccccc2)n[nH]c1=S	8.55%
O=C1CSC(=Nc2ccccc2Cl)N1	3.55%
COc1ccc(COC(=O)c2sc3nc4n(c(=O)c3c2C)CCC4)cc1	-4.72%
Cc1ccccc1CN1CCNC(=O)C1CC(=O)NCCN1CCCCC1=O (stereo not shown)	17.7%

SMILES	hERG current change (%, negative = inhibition) at 10uM
Cc1cccc(N2C(=O)C3CCC(c4ccccc4)CC3C2=O)c1 (stereo not shown)	-9.67%
O=C(Nc1nc2ccccc2[nH]1)C1CCCC1	3.49%
COC(=O)c1ccc(CC(=O)c2ccc(O)cc2O)o1	13.1%
C#Cc1cccc(C(=O)N2CCCC(CCC(=O)NCc3ccccc3F)C2)c1 (stereo not shown)	5.59%
CC1Cc2ccccc2N1C(=O)CSc1nncs1 (stereo not shown)	6.41%
Cc1c(C(=O)O)oc2ccc(S(=O)(=O)N3CCCCC3C(=O)O)cc12 (stereo not shown)	4.6%
CCCCn1c(N)c(N(CC(C)C)C(=O)c2ccc(C)o2)c(=O)[nH]c1=O	14.7%
ClC(Cl)(Cl)c1nc(N/N=C/c2ccncc2)c2ccccc2n1	33.2%
COCCCNc1ncnc2c1nc1n2CCCC1	18.6%
CNC(=O)c1nn(-c2ccc(C)cc2)ccc1=O	3.71%
c1ccc(Nc2nc(-c3ccncc3)cs2)nc1	-2.23%
O=C(NCc1ccccc1)C1=C[C@@H](c2ccc(C(F)(F)F)cc2)C[C@@H](OCc2ccc(CO)cc2)O1	-5.36%
CCC1CCCCN1CCNC(=O)c1[nH]c(C)c(C(C)=O)c1C (stereo not shown)	1.47%
C=CCN1C(=O)C(Cc2cccc(C)c2)SC1=Nc1ccc(C(=O)O)cc1 (stereo not shown)	-14.4%
CCn1nnc(NC(=O)C(C)(c2ccccc2)c2ccccc2)n1	-10.4%
Cc1cc(C)c(NC(=S)N(CCCN2CCOCC2)Cc2cccnc2)c(C)c1	-0.52%
Cc1ccccc1-c1nnc(CN2CCC(C)CC2)o1.Cl	-6.6%
Cc1cccc(C)c1OCCNC(=O)OCc1ccccc1	-6.74%
CCS(=O)(=O)c1nc(S(=O)(=O)c2ccc(C)cc2)c(NCCCN(C)C)s1	-6.03%
Cc1ccc(-c2nc3ncccn3c2NC(=O)C2CC2)cc1	13.9%

SMILES	hERG current change (%, negative = inhibition) at 10uM
CCOC(=O)C(NC(=O)c1ccc(OC)cc1)(OCC1(CC)COC1)C(F)(F)F (stereo not shown)	9.1%
CC1CC(C)CN(C(=O)c2ccc3c(c2)N(Cc2ccccc2)CCS3)C1 (stereo not shown)	-3.05%
COc1ccc(/C(C)=N/NC(=O)CNC(=O)c2cccnc2)cc1OC	18.2%
C=CCn1c(C)cc(C(=O)CSc2nnc(C3CC3)n2C2CC2)c1C	-5.39%
CO/C([O-])=N/c1c[n+](-c2ccc(Cl)cc2)no1	3.67%
Cc1ccc(-c2nnc(SCC(=O)Nc3nc4c(s3)CCCC4)n2C)cc1	6.99%
O=C(CN(CC1CCCO1)C(=O)CCC(=O)Nc1ccccn1)NCC1CCCO1 (stereo not shown)	13.8%
O=S1(=O)N(CCN2CC=C(c3c[nH]c4cc(F)ccc34)CC2)c2cccc3c2N1CCC3	-21.4%
COc1cc(CC(=O)Nc2sc3c(c2C(N)=O)CCCC3)cc(OC)c1OC	7.83%
COc1ccc(NC(=O)COc2coc(CN3CCc4ccccc43)cc2=O)cc1	2.74%
COc1ccc(C2(c3ccc(OC)cc3)NC(=O)N(CC(=O)N(C)C3CCC(C)CC3)C2=O)cc1 (stereo not shown)	-18.9%
CC1(C)CC(=O)C=C(Nc2ccc(Cl)cc2)C1	5.47%
CCCOc1ccc(NC(=O)CC2C(=O)N(CC)C(=S)N2Cc2cccs2)cc1 (stereo not shown)	2.79%
Cc1sc2ncnc(NCc3cccs3)c2c1C	-61.7%
COc1ccc(/C(O)=C/C(=O)C(=O)NNC(=O)c2ccccc2)cc1	-2.7%
Cc1ccc(-c2cc(C(=O)n3cnc4ccccc43)c3ccccc3n2)cc1C	7.36%
O=C(NN1C(=O)C2C3c4ccccc4C(c4ccccc43)C2C1=O)c1ccccc1 (stereo not shown)	11.7%
COc1ccc(-c2oc3ccc(-c4cc(OC)c(OC)c(OC)c4)cc3c2C(=O)c2ccc(OC)nc2)cc1	13.6%
